According to US20230141962A1 (published 2023):

What was measured:
Experiment in all cases: phage ELISA
[1] = molecular target: T1, HCoV-HKU1 Spike/S1 Protein (HCoV-HKU1, UniProt Q0ZME7 13-756)
T1 construct: domain: Spike/S1; also called HKU1-HIS
T1 sequence: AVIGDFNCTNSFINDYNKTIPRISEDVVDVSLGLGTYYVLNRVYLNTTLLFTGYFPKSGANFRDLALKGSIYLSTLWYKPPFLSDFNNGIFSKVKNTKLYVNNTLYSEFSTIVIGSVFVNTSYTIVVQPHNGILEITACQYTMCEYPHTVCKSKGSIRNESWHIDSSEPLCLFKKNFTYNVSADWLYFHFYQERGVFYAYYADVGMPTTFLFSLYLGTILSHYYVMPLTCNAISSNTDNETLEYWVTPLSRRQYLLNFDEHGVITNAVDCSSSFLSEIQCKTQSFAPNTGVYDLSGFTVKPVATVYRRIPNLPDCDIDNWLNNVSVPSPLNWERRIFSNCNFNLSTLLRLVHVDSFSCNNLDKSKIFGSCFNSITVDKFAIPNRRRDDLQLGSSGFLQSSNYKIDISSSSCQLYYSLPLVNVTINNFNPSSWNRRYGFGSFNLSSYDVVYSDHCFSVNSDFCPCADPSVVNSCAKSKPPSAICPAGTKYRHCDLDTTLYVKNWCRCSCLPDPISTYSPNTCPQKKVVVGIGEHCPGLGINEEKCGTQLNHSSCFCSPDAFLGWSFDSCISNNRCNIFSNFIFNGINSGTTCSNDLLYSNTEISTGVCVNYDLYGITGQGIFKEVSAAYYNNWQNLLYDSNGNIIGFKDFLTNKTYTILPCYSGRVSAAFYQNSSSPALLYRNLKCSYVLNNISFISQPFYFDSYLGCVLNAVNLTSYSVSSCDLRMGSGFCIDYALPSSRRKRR

[2] = molecular target: T2, HCoV-NL63 Spike/S1 Protein (HCoV-NL63, UniProt Q6Q1S2 19-717)
T2 construct: domain: Spike/S1; also called NL63-HIS
T2 sequence: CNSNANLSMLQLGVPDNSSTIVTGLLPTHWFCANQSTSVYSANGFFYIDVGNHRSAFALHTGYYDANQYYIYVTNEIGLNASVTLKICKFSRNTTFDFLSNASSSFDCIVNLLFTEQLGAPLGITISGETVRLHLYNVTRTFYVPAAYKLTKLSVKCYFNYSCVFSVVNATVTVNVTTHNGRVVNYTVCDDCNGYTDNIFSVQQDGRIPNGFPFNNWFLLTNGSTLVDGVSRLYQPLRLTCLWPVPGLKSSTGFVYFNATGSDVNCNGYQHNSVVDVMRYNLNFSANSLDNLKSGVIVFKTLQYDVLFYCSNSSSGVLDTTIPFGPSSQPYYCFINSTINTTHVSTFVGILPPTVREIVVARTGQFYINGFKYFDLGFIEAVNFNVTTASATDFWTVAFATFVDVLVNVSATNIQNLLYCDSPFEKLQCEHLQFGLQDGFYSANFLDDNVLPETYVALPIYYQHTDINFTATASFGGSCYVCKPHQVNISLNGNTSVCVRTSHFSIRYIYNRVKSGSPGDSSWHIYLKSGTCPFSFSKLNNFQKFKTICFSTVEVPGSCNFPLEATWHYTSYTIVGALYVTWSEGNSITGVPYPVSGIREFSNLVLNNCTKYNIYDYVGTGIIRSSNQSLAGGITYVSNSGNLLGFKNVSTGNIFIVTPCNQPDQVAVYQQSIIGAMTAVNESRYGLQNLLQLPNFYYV

HCoV-OC43 Spike Protein = molecular target: T3, HCoV-OC43 Spike Protein (HCoV-OC43, UniProt P36334 14-1297)
T3 construct: also called OC43-HIS
T3 sequence: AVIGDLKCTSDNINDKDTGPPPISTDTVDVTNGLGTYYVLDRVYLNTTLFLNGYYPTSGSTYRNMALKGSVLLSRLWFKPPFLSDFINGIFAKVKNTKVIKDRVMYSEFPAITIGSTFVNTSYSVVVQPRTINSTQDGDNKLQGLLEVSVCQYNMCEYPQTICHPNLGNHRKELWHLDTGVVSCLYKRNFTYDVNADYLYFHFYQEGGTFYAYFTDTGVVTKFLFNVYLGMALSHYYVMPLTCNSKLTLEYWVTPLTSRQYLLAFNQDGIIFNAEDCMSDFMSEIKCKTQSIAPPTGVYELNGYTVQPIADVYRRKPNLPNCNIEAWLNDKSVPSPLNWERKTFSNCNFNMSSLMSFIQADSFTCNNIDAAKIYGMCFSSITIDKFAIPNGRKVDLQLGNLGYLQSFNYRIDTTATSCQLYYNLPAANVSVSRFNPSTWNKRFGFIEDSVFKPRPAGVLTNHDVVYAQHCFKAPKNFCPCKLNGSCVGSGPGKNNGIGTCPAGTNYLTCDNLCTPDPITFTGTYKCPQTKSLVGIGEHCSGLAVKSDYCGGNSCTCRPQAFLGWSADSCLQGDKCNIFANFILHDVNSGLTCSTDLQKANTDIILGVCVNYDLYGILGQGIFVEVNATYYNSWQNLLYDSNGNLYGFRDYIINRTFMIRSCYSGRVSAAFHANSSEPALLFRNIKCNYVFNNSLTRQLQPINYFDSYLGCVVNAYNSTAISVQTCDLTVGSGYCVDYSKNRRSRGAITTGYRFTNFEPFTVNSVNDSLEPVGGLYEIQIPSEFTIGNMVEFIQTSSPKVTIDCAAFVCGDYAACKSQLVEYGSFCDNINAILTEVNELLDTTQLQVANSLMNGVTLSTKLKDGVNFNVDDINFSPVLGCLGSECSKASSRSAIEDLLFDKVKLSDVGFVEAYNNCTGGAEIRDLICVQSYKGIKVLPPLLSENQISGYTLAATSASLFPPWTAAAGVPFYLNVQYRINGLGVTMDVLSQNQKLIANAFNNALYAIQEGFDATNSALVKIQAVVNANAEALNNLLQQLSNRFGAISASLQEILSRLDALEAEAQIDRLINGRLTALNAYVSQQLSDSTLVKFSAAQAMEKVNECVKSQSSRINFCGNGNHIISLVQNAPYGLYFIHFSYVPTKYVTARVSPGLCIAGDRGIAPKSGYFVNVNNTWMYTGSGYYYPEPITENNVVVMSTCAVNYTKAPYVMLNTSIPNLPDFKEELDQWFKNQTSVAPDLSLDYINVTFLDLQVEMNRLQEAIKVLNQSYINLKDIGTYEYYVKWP

[3] = molecular target: T4, HCoV-229E Spike/S1 Protein (HCoV-229E, UniProt P15423 16-536)
T4 construct: domain: Spike/S1; also called 229E-HIS
T4 sequence: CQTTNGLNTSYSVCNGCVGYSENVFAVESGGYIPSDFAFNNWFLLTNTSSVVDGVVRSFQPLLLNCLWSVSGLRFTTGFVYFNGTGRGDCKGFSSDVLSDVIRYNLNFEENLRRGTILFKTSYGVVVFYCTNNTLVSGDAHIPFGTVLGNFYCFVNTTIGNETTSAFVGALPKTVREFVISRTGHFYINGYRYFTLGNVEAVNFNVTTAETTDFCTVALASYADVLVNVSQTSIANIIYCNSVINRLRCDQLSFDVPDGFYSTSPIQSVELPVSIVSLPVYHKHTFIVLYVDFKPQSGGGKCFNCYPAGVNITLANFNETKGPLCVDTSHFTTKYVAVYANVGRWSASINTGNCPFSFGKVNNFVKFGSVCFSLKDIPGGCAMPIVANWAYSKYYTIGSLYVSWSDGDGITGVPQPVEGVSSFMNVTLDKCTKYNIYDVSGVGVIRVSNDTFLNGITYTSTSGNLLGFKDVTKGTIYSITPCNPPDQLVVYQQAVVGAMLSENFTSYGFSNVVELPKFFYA

Measured: binding result

B1: phage clone #85 (scFv)
scFv: QAVLTQPPSASGTPGQMVTISCSGSNSNIGSNPVNWYQQLPGTAPKLLIYGNDERPSGVPDRFSGSKSGTSASLAISGLQSEDEADYYCAAWDDSLDGHVIFGGGTKLTVLGSRGGGGSGGGGSGGGGSLEMA[about 100 residues not spelt out]GYSDYWGQGTLVTVSSTSGQAGQ
no binding: all assays above
